Test results published in the supplement of paper PMC4166925.
± gives the standard deviation of the averaged measurements. The full ranking holds about 33,000 sequences; the median of “E-score (dimensionless, -0.5 to 0.5)” is about -0.049, and the highest 2% start at about 0.37. The list shows a part of the results.

Test system: T1, PmTbr T-box DNA-binding domain (GST fusion)
T1 sequence: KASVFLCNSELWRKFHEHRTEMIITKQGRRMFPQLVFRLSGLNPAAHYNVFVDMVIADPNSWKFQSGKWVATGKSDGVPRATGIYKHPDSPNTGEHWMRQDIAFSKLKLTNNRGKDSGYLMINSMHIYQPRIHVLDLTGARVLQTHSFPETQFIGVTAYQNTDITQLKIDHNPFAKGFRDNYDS
Test: PBM E-score of 8-mer (E-score (dimensionless, -0.5 to 0.5)); Tbr is Tbrain of the sea star Patiria miniata (Pm) or the sea urchin Strongylocentrotus purpuratus (Sp); higher = stronger binding preference; most listed sequences are background and not binding sites
Settings: the construct has about 5 more residues each side
In short: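 Universal Agilent oligonucleotide arrays, made double-stranded by primer extension, were incubated with 200 nM GST-fused Tbr T-box DNA-binding domain in PBS (pH 7.5). The protein was expressed in BL21 E. coli at 20 °C and purified by glutathione affinity chromatography. After scanning and quantification, the Universal PBM Analysis Suite assigned an enrichment E-score to each ungapped 8-mer, averaged over duplicate arrays.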

Compared with GCTCTCTA, CGTTGAAA is higher in “PBM E-score of 8-mer” value: -0.176 ± 0.03 for the first, 0.0196 ± 0.027 for the second.

CTTTTAGC and TCACCAAA are within error of each other in “PBM E-score of 8-mer” value: 0.22 ± 0.074 for the first, 0.177 ± 0.043 for the second.

Compared with CCACTGAA, CATTAGCC is higher in “PBM E-score of 8-mer” value: -0.221 ± 0.016 for the first, -0.12 ± 0.059 for the second.

AGCCGACC and AGAGGGAA are within error of each other in “PBM E-score of 8-mer” value: -0.193 ± 0.028 for the first, -0.213 ± 0.03 for the second.

Compared with CCGCAACC, AATCGTTG is higher in “PBM E-score of 8-mer” value: -0.182 ± 0.03 for the first, -0.0951 ± 0.017 for the second.

CGGCAGAG and AAGTCATG are within error of each other in “PBM E-score of 8-mer” value: 0.00638 ± 0.076 for the first, 0.017 ± 0.0099 for the second.

First: ACACATTC
Second: CACTGAGA
The “PBM E-score of 8-mer” value of the first is higher: 0.387 ± 0.016 for the first, -0.158 ± 0.085 for the second.

First: AAATGAGA
Second: GCGGACGA
The “PBM E-score of 8-mer” value of the first is lower: -0.202 ± 0.11 for the first, -0.00532 ± 0.044 for the second.

Going from ACCTGAAG to AGCGCGTA, the “PBM E-score of 8-mer” value rises from -0.0171 ± 0.064 to 0.2079 ± 0.00075.

First: AAATAGGT
Second: AGTAAACT
The “PBM E-score of 8-mer” value of the first is higher: 0.0404 ± 0.07 for the first, -0.108 ± 0.023 for the second.

Going from ATCCCGAA to TAAATTGA, the “PBM E-score of 8-mer” value rises from -0.0919 ± 0.037 to 0.00543 ± 0.037.

AGAGCATG and AATGTTCT are within error of each other in “PBM E-score of 8-mer” value: -0.214 ± 0.092 for the first, -0.239 ± 0.056 for the second.

GTAGTCTA and CTACTAAG are within error of each other in “PBM E-score of 8-mer” value: -0.207 ± 0.03 for the first, -0.196 ± 0.044 for the second.

Going from TGCATACA to CGGTACTA, the “PBM E-score of 8-mer” value rises from -0.329 ± 0.054 to -0.19 ± 0.068.

First: AAGCCACT
Second: ACCCCTCC
The “PBM E-score of 8-mer” value of the first is lower: 0.000585 ± 0.037 for the first, 0.0689 ± 0.018 for the second.

First: ACGAGACT
Second: CTAGCAAA
The “PBM E-score of 8-mer” value of the first is lower: -0.147 ± 0.073 for the first, 0.113 ± 0.039 for the second.

Going from AAGGAGAT to CCGCAGGC, the “PBM E-score of 8-mer” value rises from -0.142 ± 0.059 to 0.000335 ± 0.0022.

CATTCGAC and ACCCTACA are within error of each other in “PBM E-score of 8-mer” value: -0.0169 ± 0.0046 for the first, 0.024 ± 0.052 for the second.

Going from AAGCAGAA to AATTGGGC, the “PBM E-score of 8-mer” value falls from -0.00243 ± 0.12 to -0.184 ± 0.03.

Going from CCTAGTGC to GAAAGCTA, the “PBM E-score of 8-mer” value falls from 0.113 ± 0.021 to -0.00503 ± 0.012.

AGACAGTA and AGGGGTAG are within error of each other in “PBM E-score of 8-mer” value: -0.0399 ± 0.045 for the first, -0.085 ± 0.024 for the second.

Going from GATTTTCA to AACGTCTG, the “PBM E-score of 8-mer” value falls from -0.0598 ± 0.093 to -0.247 ± 0.0067.

AATATCAT and ACTCAACT are within error of each other in “PBM E-score of 8-mer” value: -0.136 ± 0.089 for the first, -0.0871 ± 0.011 for the second.

First: TCCACAAA
Second: AATCCTAA
The “PBM E-score of 8-mer” value of the first is higher: 0.0815 ± 0.0024 for the first, -0.211 ± 0.041 for the second.

Compared with ACGATTTA, GGAATCCA is lower in “PBM E-score of 8-mer” value: 0.0453 ± 0.00064 for the first, -0.221 ± 0.047 for the second.

GGTAACGA and ACGTATGA are within error of each other in “PBM E-score of 8-mer” value: 0.0174 ± 0.026 for the first, -0.00267 ± 0.0085 for the second.

CTACGGCC and TGAATGCA are within error of each other in “PBM E-score of 8-mer” value: -0.271 ± 0.072 for the first, -0.205 ± 0.0086 for the second.

Compared with CGTTCCCC, CGGGGCAC is lower in “PBM E-score of 8-mer” value: -0.0259 ± 0.031 for the first, -0.163 ± 0.0096 for the second.

First: CCGGAATC
Second: CACCCACA
The “PBM E-score of 8-mer” value of the first is lower: -0.159 ± 0.0056 for the first, 0.322 ± 0.02 for the second.

First: CCACGGGA
Second: GATTATCC
The “PBM E-score of 8-mer” value of the first is lower: -0.177 ± 0.043 for the first, -0.0623 ± 0.022 for the second.

AGGTACAC and TAGACCCA are within error of each other in “PBM E-score of 8-mer” value: -0.258 ± 0.033 for the first, -0.208 ± 0.061 for the second.

Compared with AGGAAGGG, ACTGTAGC is higher in “PBM E-score of 8-mer” value: -0.28 ± 0.01 for the first, -0.0923 ± 0.037 for the second.

AAAAAAAA and CTCTAGCA are within error of each other in “PBM E-score of 8-mer” value: 0.181 ± 0.14 for the first, 0.11 ± 0.052 for the second.

AATCTTGG and CGGCCGTA are within error of each other in “PBM E-score of 8-mer” value: -0.154 ± 0.068 for the first, -0.244 ± 0.051 for the second.

First: CCGCCAGG
Second: CAGTGAGC
The “PBM E-score of 8-mer” value of the first is lower: -0.161 ± 0.037 for the first, -0.0576 ± 0.033 for the second.

Compared with TCCTCCCA, AGGGGTTG is higher in “PBM E-score of 8-mer” value: -0.228 ± 0.011 for the first, -0.0593 ± 0.025 for the second.

Going from ATGGTACA to TGCGACAA, the “PBM E-score of 8-mer” value rises from -0.0984 ± 0.012 to 0.296 ± 0.013.

GAAGAAGC and ACCCGAAC are within error of each other in “PBM E-score of 8-mer” value: -0.029 ± 0.038 for the first, -0.037 ± 0.034 for the second.

Compared with CGCCCCCA, GGAGCCAA is higher in “PBM E-score of 8-mer” value: -0.173 ± 0.087 for the first, 0.0103 ± 0.085 for the second.

First: GCCGGGGA
Second: AACGCGGA
The “PBM E-score of 8-mer” value of the first is lower: -0.1699 ± 0.0012 for the first, 0.062 ± 0.03 for the second.

GCTACTAA and ATAGCATA are within error of each other in “PBM E-score of 8-mer” value: 0.0526 ± 0.064 for the first, 0.057 ± 0.018 for the second.

Going from ATTAGGGG to CGGTCCCA, the “PBM E-score of 8-mer” value rises from -0.208 ± 0.071 to 0.00853 ± 0.048.

Compared with CCGGCGAA, ACCCTGTC is higher in “PBM E-score of 8-mer” value: -0.133 ± 0.079 for the first, 0.0965 ± 0.015 for the second.
